Test results reported in PubChem BioAssay AID434955 (Southern Research Specialized Biocontainment Screening …, 2010).
The list shows a part of the results. Shown are side measurements of this screen, not its main read-out; they come without a call. Most of these compounds were active or inconclusive in the main read-out, so they are no random draw.

experiment: beta-lactam sensitization of Mtb H37Rv, H37Rv (AID 434955);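 further: growth measured after seven days incubation then overnight dye step; 0% = bacteria only wells and 100% = bacteria with antibiotic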; conditions: M. tuberculosis H37Rv growth with meropenem, percent inhibition; measured here: primary screen without meropenem; at 25 µM

| SMILES | inhibition [%] |
| --- | --- |
| COc1cc(C(Nc2ccccn2)c2ccc3ccc(C)nc3c2O)cc(OC)c1O (stereo unspecified) | -1.6 |
| O=C1CSC(c2ccccn2)N1c1cccc(Cl)c1 (stereo unspecified) | -5.69 |
| CN(CCC1CCOCC1)C(=O)CC1C(=O)NCCN1Cc1c(F)cccc1Cl (stereo unspecified) | -3.18 |
| Cc1cc(C)cc(-n2c(C)c3c(C)nnc(C)c3c2C)c1 | 97.1 |
| COC(=O)CSc1nnc(NC(=O)c2ccc3c(c2)OCO3)s1 | 56.1 |
| CCOC(=O)N1CCC(N2C(=O)c3ccccc3C2Nc2ccc3c(c2)OCCO3)CC1 (stereo unspecified) | -3.61 |
| Cc1cc2[nH]c(=O)c(=O)[nH]c2cc1S(=O)(=O)Nc1cccc(Cl)c1C | -8.05 |
| Cn1cc(C(=O)N/N=C/C(Br)=C/c2ccccc2)ccc1=O | 1.84 |
| CCOC(=O)N1CCN(c2nc(-c3ccccc3)c3cc(C)ccc3n2)CC1 | 9.53 |
| O=c1[nH]c(CN(CCO)CCO)nc2c1C1(CCCCC1)Cc1ccccc1-2 | 35 |
| COCCOC1CCN(C(=O)c2cc(COc3ccc(F)cc3F)on2)CC1 | 3.82 |
| CCOC(=O)c1ccc2c(c1)nc(SCC(=O)c1cc3ccccc3o1)n2CC | -2.07 |
| Cc1c(C(=O)OC2CCC(C)CC2)[nH]c2c1C(=O)CCC2 (stereo unspecified) | 5.48 |
| CCOc1cc(/C=N\Nc2ccc([N+](=O)[O-])cc2)ccc1OCC(=O)Nc1ccc(C)c(C)c1 | 39 |
| Cc1cc(C(F)F)nn1CC(=O)NC1CCCC1 | 1.97 |
| CCCCCCn1c(COc2ccccc2F)nnc1SCC(=O)N1c2ccccc2NC(=O)C1(C)C | 6.48 |
| Cc1onc(-c2ccccc2Cl)c1C(=O)NCc1ccc2c(c1)cc(C)n2C | 38.6 |
| CC(C)Oc1ccc(C2c3c(oc4ccccc4c3=O)C(=O)N2CCCN2CCOCC2)cc1 (stereo unspecified) | -5.07 |
| CCOC(=O)C(=CNc1ccc2c(c1)c1ccccc1n2CC)C(=O)OCC | 27.7 |
| CCCCOP(=O)(c1ccc(N(C)C)cc1)C(O)c1c(Cl)cccc1Cl (stereo unspecified) | 2.86 |
| CSc1ccc(/C=N/n2c(COc3ccccc3)n[nH]c2=S)cc1 | 5.72 |
| COc1cc(NS(=O)(=O)c2c(C)[nH]c(C)c2C(=O)N2CCCC2)cc(OC)c1OC | -4.22 |

| SMILES | inhibition [%] |
| --- | --- |
| COc1ccc(N(CC(=O)Nc2ccc(S(=O)(=O)N3CCCC3)cc2)S(C)(=O)=O)cc1OC | 10.1 |
| CCn1ncc2c1C(=O)NC1c3ccccc3C(=O)N21 (stereo unspecified) | 2.49 |
| O=[N+]([O-])c1ccc(Sc2nc3ccccc3o2)c([N+](=O)[O-])c1 | 100 |
| COc1ccc(C2c3[nH]c4ccccc4c3C[C@H]3C(=O)N(C4CCN(Cc5ccccc5)CC4)CC(=O)N23)c(OC)c1 (stereo partly specified) | 30.2 |
| CCCOc1ccc(/C=N/NC(=O)c2c(-c3ccccc3)noc2C)cc1OC | 4.11 |
| CC(C)(C)c1nc2scc(-c3cccs3)c2c(=O)o1 | 9.69 |
| O=c1c2ccccc2nc(COc2ccccc2)n1/N=C/c1cc([N+](=O)[O-])ccc1O | 37.8 |
| O=C1Nc2c(ccc(Cl)c2Cl)C(=O)C1(F)c1ccccc1 (stereo unspecified) | 34.5 |
| COc1ccc(C(=O)Nc2ccc3nc(N4CCCCC4)cc(C)c3c2)c(OC)c1 | 6.26 |
| CCCCCC(=O)Nc1c(-c2ccc(OC)cc2)c(=O)c2ccccc2n1C | 4.92 |
| c1ccn2c(c1)nc1c2nc2ccccn21 | 0.95 |
| Cc1ccc(/C=C/S(=O)(=O)NCC(=O)OCC(=O)NCc2ccccc2)cc1 | 6.29 |
| CC1CCc2nn(CC(=O)NCc3ccc(F)cc3)cc2C1 (stereo unspecified) | -10.4 |
| O=C1NCCN(Cc2cccc(Oc3ccccc3)c2)C1CC(=O)N1CCCCC1 (stereo unspecified) | 0.41 |
| Cc1ccc2nc(N(CCN(C)C)C(=O)c3ccc4ccccc4c3)sc2c1 | 3.77 |
| CC(C)(C)c1ccc(C(=O)NCc2nnc(SCC(=O)NCc3ccco3)o2)cc1 | -1.92 |
| COCCCNc1nc2ccccc2nc1NS(=O)(=O)c1ccc(OC)cc1 | 7.05 |
| Oc1ccc(Br)cc1/C=N/n1c(C2CCCCC2)n[nH]c1=S | -6.89 |
| O=C(NCc1cccnc1)C1CCCN(Cc2cnn(-c3ccccc3)c2-n2cccc2)C1 (stereo unspecified) | -5.36 |
| CCCc1cc(C(=O)Nc2ccc(C(C)=O)cc2)no1 | 29.9 |
| O=C(CCl)N(c1ccccc1)C1CCS(=O)(=O)C1 (stereo unspecified) | 24.5 |
| COc1ccc(S(=O)(=O)NCCOc2ccccc2)cc1F | 4.71 |

| SMILES | inhibition [%] |
| --- | --- |
| CCOC(=O)N1CCN(S(=O)(=O)/C=C/c2ccccc2)CC1 | -5.61 |
| O=C(CSc1nnc(NC(=O)c2cccc(F)c2)s1)NCC1CCCO1 (stereo unspecified) | 5.02 |
| C=CCOC(=O)C1CC=CCC1C(=O)Oc1ccc(F)cc1F (stereo unspecified) | 2.14 |
| O=C(c1ccsc1)N1CCCC(N2CCN(c3ccccc3F)CC2)C1 (stereo unspecified) | -5.18 |
| CN(C(=O)C1CCC(=O)N(Cc2ccccc2F)C1)C1CCOCC1 (stereo unspecified) | -10.4 |
| Cc1ccccc1NS(=O)(=O)c1cc(C(=O)N2CCCC2)ccc1Cl | -10.7 |
| CN(C(=O)C1CCN(S(=O)(=O)c2cccc3nonc23)CC1)C1CCCCC1 | -1.8 |
| COc1cc(/C=C/c2ccc3cccc([N+](=O)[O-])c3n2)ccc1OCC(=O)O | 49 |
| Cc1cc(=O)[nH]c(S/C=C/c2ccccc2)n1 | -1.87 |
| CCCCSCCCNC(=O)c1ccc(CS(=O)(=O)c2ccc(OC)cc2)o1 | 8.07 |
| CCCN(CCC)C(=O)c1ccc2c(c1)S(=O)(=O)c1ccccc1C2=O | -5.39 |
| COc1ccccc1-n1c(C)nc2cc(C(=O)NCC3CCCO3)ccc21 (stereo unspecified) | -4.49 |
| Nc1ncc(Br)cc1S(=O)(=O)NCCC(=O)NCc1ccc(F)cc1 | 6.56 |
| CC(C)(C(=O)c1ccccc1)/[N+]([O-])=C/c1ccc(Br)cc1 | 3.61 |
| O=C(COc1ccccc1)Nc1cc(C(F)(F)F)ccc1N1CCCC1 | 12.2 |
| Cc1cc(C(=O)NC2CC(C)(C)Cc3c2cnn3-c2ccccc2C)c(C)o1 (stereo unspecified) | 13.8 |
| CCc1ccccc1-n1nnc(-c2ccccc2)n1 | 3.64 |
| CCc1ccc(NC(=O)C2C3/C=C\CCCCC32)cc1 (stereo unspecified) | -7.75 |
| O=C1O/C(=C/c2ccccc2)N=C1c1ccccc1 | 8.06 |
| CSc1sc(C(=O)N2CCc3ccccc32)cc1S(=O)(=O)C(C)C | 3.8 |
| Fc1ccc(/C=N/n2c(C3CCCCC3)n[nH]c2=S)cc1 | 2.51 |
| Cn1nc(C(C)(C)C)cc1C(=O)NN1CCOCC1 | -9.9 |

| SMILES | inhibition [%] |
| --- | --- |
| COc1cc(F)ccc1CN1CCC(n2nccc2NC(=O)C2CCOC2)CC1 (stereo unspecified) | -2.52 |
| Cc1cccc(Nc2nnc(SCC(=O)Nc3ncc(C(F)(F)F)cc3Cl)s2)c1C | 40.7 |
| COc1ccc(NS(=O)(=O)c2cccc(C(=O)NC3CCC(O)CC3)c2)cc1 (stereo unspecified) | 3.25 |
| COc1cc(C(=S)N2CCOCC2)ccc1OC(=O)c1ccc([N+](=O)[O-])cc1[N+](=O)[O-] | 5.71 |
| O=C(O)c1cc2c(o1)CCC/C2=N\O | -1.04 |
| CCOC(=O)c1c(NC(=O)CCS(=O)(=O)c2ccccc2)sc2c1CC(C)(C)NC2(C)C | -5.97 |
| COC(=O)C1CCN(C(=O)COC(=O)CC(NC(C)=O)c2ccccc2)CC1 (stereo unspecified) | -9.05 |
| CCCCc1nc(C(N)=O)c2[nH]c(=O)n(-c3ccc(OCC)cc3)c2n1 | 8.14 |
| O=C(Cn1cc2c(n1)CCCC2)NCCc1ccccc1 | -11.9 |
| Cc1ccc(/C=C/C(=O)OCC(=O)NC(C)c2ccccc2)o1 (stereo unspecified) | 36.4 |
| CCC(C)(c1ccc(C(=O)OC)s1)c1ccc(C(=O)OC)s1 | 16.6 |
| COc1c2occc2c(OC(C)=O)c2c(=O)cc(C)oc12 | -6.22 |
| CCOC(=O)N1CCN(c2cc(=O)n(-c3ccc(OCC)cc3)c(=O)[nH]2)CC1 | 23.7 |
| Nc1cc(=O)nc(SCc2ccccc2)n1Cc1ccco1 | -5.58 |
| COc1ccccc1-c1cc(C(=O)Nc2cc(C)nn2-c2ccccc2)no1 | -6.43 |
| CCOC(=O)c1ccccc1NC(=O)C1CSC2(C)CCC(=O)N12 (stereo unspecified) | -4.16 |
| CC(=O)N1CCOc2cc(S(=O)(=O)NCc3ccc(F)cc3)c(C)cc21 | -11.8 |
| Oc1ccc(Cl)cc1/C=N/c1nc2ccccc2[nH]1 | 3.77 |
| COc1ccccc1OCC(=O)Nc1c2c(nn1-c1ccc(F)cc1)CS(=O)(=O)C2 | 15.7 |
| Cc1ccc(F)cc1NC(=O)c1cccc2nccnc12 | 4.78 |
| CCc1ccc(-c2cc(C)no2)cc1S(=O)(=O)N1CCOc2ccc(C)cc21 | 1.47 |
| Cc1noc(NS(=O)(=O)c2ccc(N/C=C/C(=O)c3ccc4c(c3)OCO4)cc2)c1C | 16.6 |

| SMILES | inhibition [%] |
| --- | --- |
| Cc1ccc2c(c1)N(C(=O)CCC(=O)NCc1ccccc1)CC(C)O2 (stereo unspecified) | -8.08 |
| O=c1oc(-c2ccco2)nc2sc3c(c12)CCCCC3 | 3.71 |
| Cn1c(=O)c2c(SCC(=O)N3CCOCC3)nc(-c3ccccc3F)nc2n(C)c1=O | 1.44 |
| COc1ccc2cc(C(=O)C3CCCN(C(=O)c4cncs4)C3)ccc2c1 (stereo unspecified) | 0.43 |
| CCCn1c(=O)c2c(nc3n2CCCN3CCc2ccccc2)n(C)c1=O | 4.63 |
| COC(=O)Cc1c(C)nc2nc(-c3ccc(OC)cc3)[nH]n2c1=O | -1.33 |
| O=S(=O)(Cc1ccccc1)NCc1ccccn1 | -8.93 |
| COc1cc2cnc(-c3ccsc3)c(-c3ccc(F)cc3)c2cc1OC | 94.9 |
| CCOC(=O)c1c(NC(=O)COC(=O)c2ncc(Cl)c(Cl)c2Cl)sc(C(=O)N(C)C)c1C | 23.3 |
| CCn1c(=O)cc(SCC(=O)NCc2ccco2)c2ccccc21 | -0.14 |
| O=C(Cn1c(=O)n2ncnc2c2c3c(sc21)CCCC3)c1ccccc1 | 1.16 |
| CCN(CC)S(=O)(=O)c1ccc(NC(=O)c2ccc(OCC3CCCO3)cc2)cc1 (stereo unspecified) | 88.7 |
| Cc1ccc(C(=O)N2CCC3(CC2)Oc2ccc(F)cc2C(=O)C32CC(c3cccnc3)=NO2)s1 (stereo unspecified) | 12.5 |
| O=C(/C=C/c1ccc2c(c1)OCO2)Nc1c(C(=O)O)[nH]c2ccccc12 | -3.9 |
| CSCCC(NC(N)=O)C(=O)NCc1ccc(Cl)cc1 (stereo unspecified) | -10.6 |
| O=C(COc1ccccc1)Nc1ccncc1Cl | 35.5 |
| CN(CC1CCCO1)S(=O)(=O)c1ccc(C(=O)Nc2ccc(S(N)(=O)=O)cc2)cc1 (stereo unspecified) | 1.66 |
| O=C(Nc1ccccc1)c1nc[nH]c1C(=O)N1CCc2ccccc2C1 | 81.9 |
